Assay results published in PubChem BioAssay AID504832 (National Center for Advancing Translational Sciences (NCATS), 2011).
Among all 310,000 compounds or so, about 18,000 (5.8%) were called active. The inconclusive results got no clear call from the source; some entries with a clear call stand among them for comparison. The call rests on the fitted dose curve; in most records, active means well fitted inhibition curve with a large enough effect; inconclusive means small, poorly fitted or top-dose-only effect, or another doubt; inactive means no such curve, though single readings can be large or run the other way. No potency is given beside an inconclusive call; the fits are too rough.

assay: Primary qHTS for delayed death inhibitors of the malarial parasite plastid, 48 hour incubation; details: P. falciparum luciferase growth in erythrocytes; series mostly up to 28.7 µM
Procedure, shortened: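 Erythrocytes infected with P. falciparum carrying an integrated firefly luciferase reporter (2% hematocrit, 0.1% parasitemia final) were exposed to compounds in RPMI 1640 with 0.5% Albumax at 37 C, 5% CO2. Growth inhibition was scored as reduced luminescence.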
Potency means the concentration at half of the fitted maximal effect; tags describe the fitted curve by direction and shape.

SMILES | Potency
CCN1C(=O)/C(=C\C(=O)c2cccs2)c2cc(Br)ccc21 | inconclusive [inhibitor, partial curve, poor fit]
CCOc1ncccc1C(=O)OCC(=O)Nc1ccc2c(c1)OCO2 | inactive
c1ccc(Oc2ncnc3sccc23)cc1 | inconclusive [inhibitor, full curve, poor fit]
COCCCNC(=S)NNC(=O)c1cc(C2CC2)nc2ccccc12 | inconclusive [inhibitor, single point]
CCCc1cc(N2CCCC(C(=O)Nc3ccc(OC)cc3OC)C2)n2ncnc2n1 (stereo not drawn) | inconclusive [inhibitor, partial curve]
C=CCN(CC(=O)NC1CCS(=O)(=O)C1)S(=O)(=O)c1ccccc1C(F)(F)F (stereo not drawn) | inactive
Clc1ccccc1OCCn1nnc2ccccc21 | inactive
Cc1ccc(C)c(S(=O)(=O)N2CCCOC2CNC(=O)C(=O)NCCc2ccccc2)c1 (stereo not drawn) | inconclusive [inhibitor, single point]
COc1ccccc1Nc1c2ccccc2nc2ccccc12 | active: 7.38 µM
CC(C)(C)OC(=O)NCc1ccc(NC(=O)c2nc[nH]c2C(=O)N[C@@H](Cc2ccccc2)C(=O)OC(C)(C)C)cc1 | active: 2.33 µM
CCOC(=O)N1CCN(C(=O)c2cc(-c3ccc(F)cc3)[nH]c2C)CC1 | inconclusive [inhibitor, single point]
Cc1cc(C)n(CC(=O)N2CCCC(C(=O)c3cccc(OC(C)C)c3)C2)n1 (stereo not drawn) | inconclusive [inhibitor, full curve, poor fit]
CC(Sc1nnc(-c2ccc(OC(F)F)cc2)n1N)C(=O)NCC1CCCO1 (stereo not drawn) | inconclusive [inhibitor, single point]
Cc1cccc(OCC(=O)N/N=C/c2cc([N+](=O)[O-])ccc2N2CCOCC2)c1 | inactive
COc1ccc(C(=O)Nc2nnc(SCC(=O)Nc3ccc(NC(C)=O)cc3)s2)c(OC)c1 | inactive
COc1ccc(S(=O)(=O)n2ccc(-c3cnc(-c4ccccc4)s3)n2)cc1 | inconclusive [inhibitor, partial curve, poor fit]
CC(C)(C)OC(=O)N1CCCN(C(=O)Nc2ccc(OC(F)(F)F)cc2)CC1 | inconclusive [inhibitor, partial curve]
COc1ccc(C2=NN(CC(=O)Nc3ccccc3C)C(=O)CC2)cc1 | active: 4.15 µM
CCn1c(Cc2ccccc2)nnc1SCC(=O)Nc1ccc(C)cc1 | inconclusive [inhibitor, single point]
O=C(COc1ccccc1)Nc1ccc(Cl)cc1C(=O)c1ccccc1 | inactive
NC(=O)[C@H](Cc1cc2ccccc2s1)NC(=O)[C@@H]1CC2(CC(c3cccc(NC(=O)[C@@H]4CCC(=O)N4)c3)=NO2)CN1C(=O)c1ccccc1 (stereo partly drawn) | active: 13.1 µM
Cc1ccc(CN(CC(O)COc2cccc3[nH]cc(C)c23)C(C)(C)C)cc1 (stereo not drawn) | active: 10.4 µM

SMILES | Potency
CCOC(=O)C1=C(c2ccccc2)NC(SCC)=C(C#N)C1c1cccnc1 (stereo not drawn) | inconclusive [inhibitor, single point]
Cc1nn2c(N)c(-c3ccccc3)cnc2c1-c1ccccc1 | inactive
O=S(=O)(NCC(c1ccco1)N1CCCCC1)c1cccc(C(F)(F)F)c1 (stereo not drawn) | inconclusive [inhibitor, partial curve]
CC(C)c1ccc(O)c(NC(=O)c2ncn[nH]2)c1 | inconclusive [inhibitor, partial curve, poor fit]
CC(C)c1cc(C(=O)N2CCCC(N3CCN(c4ccccc4F)CC3)C2)nc(N)n1 (stereo not drawn) | inconclusive [inhibitor, partial curve]
O=C(Nc1ccc(S(=O)(=O)N2C[C@@H]3C[C@@H](C2)c2cccc(=O)n2C3)cc1)c1ccc(F)cc1 | inactive
CS(=O)(=O)N(CC(O)Cn1c2ccccc2c2ccccc21)c1cccc2ccccc12 (stereo not drawn) | inconclusive [inhibitor, single point]
CCC(CC)NC(=O)c1cc2c(C)nn(Cc3ccccc3Cl)c2s1 | active: 13.1 µM
CN(CC(=O)Nc1cccc(F)c1)C(=O)CCCc1nc2ccccc2c(=O)[nH]1 | inconclusive [inhibitor, single point]
Nc1ccccc1-c1nc2ccccc2c(=O)o1 | inactive
CC1(C)CC(=O)C(C=Nc2ccc3c(c2)OCO3)=C(O)C1 | inactive
CC12CN(C(=S)Nc3ccccc3)CC(C)(CN(C(=S)Nc3ccccc3)C1)C2=O | inconclusive [inhibitor, single point]
CCCNC(=S)Nc1ccc2nc(-c3ccccn3)c(-c3ccccn3)nc2c1 | inconclusive [inhibitor, partial curve, poor fit]
Cc1ccccc1CC1(CO)CCCN(Cc2cn[nH]c2-c2ccccc2)C1 (stereo not drawn) | inconclusive [inhibitor, full curve, poor fit]
COC(=O)C1=C(c2ccc(C(C)=O)cc2)C[C@@H]2CC[C@H]1N2C(=O)NCc1ccc(C(F)(F)F)cc1 | inconclusive [inhibitor, single point]
O=[N+]([O-])c1ccc(-c2nc3ccc([N+](=O)[O-])cc3[nH]2)cc1 | inconclusive [inhibitor, full curve, poor fit]
O=C(CSc1nnc(-c2ccc(C(F)(F)F)cn2)s1)c1ccc(Cl)cc1 | inconclusive [inhibitor, partial curve, poor fit]
CC(=O)OCC(OC(C)=O)C(OC(C)=O)C(OC(C)=O)C(=O)Nc1ccccc1 (stereo not drawn) | inactive
CC(C)CCN1CCN(Cc2cccc(C(F)(F)F)c2)CC1CCO (stereo not drawn) | inconclusive [inhibitor, partial curve]
COc1ccc(C(=O)Nc2cccc(N(C)S(C)(=O)=O)c2)cc1OC | inactive
CC1CCC2(CC1)N=C(N)Nc1nc3ccccc3n12 (stereo not drawn) | inconclusive [inhibitor, single point]
